Measurements published in PubChem BioAssay AID1508624 (National Center for Advancing Translational Sciences (NCATS), 2021).
Screen size: about 48,000 compounds; about 120 (0.25%) were called active. Another 4% or so got no clear call; they are omitted. Calls come from the whole dose curve; as a rule, active = well fitted activation curve with a large enough effect; inconclusive = small, poorly fitted or top-dose-only effect, or another doubt; inactive = no such curve, though single readings can be large or run the other way. The list shows a part of the results.

Assay: Primary qHTS for Identification of Small Molecule Activators of Huntingtin-Antisense Promoter Activity; note: nearly all actives have a fitted effect of over 55% in size
Conditions: HEK293 HTT-AS promoter firefly luciferase reporter (activity 0% = vehicle and -100% = no light), 24 h; series mostly up to 57.5 µM; activity change, positive = activation: at the top concentration
How it was run: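 HEK293 cells carrying firefly luciferase reporters were seeded at 2,500 per well in Opti-MEM and cultured for 24 h. They were then treated with compounds at up to 57.5 uM final for 24 h at 37 degrees C before Dual-Glo luminescence readout.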

Activity change, positive = activation, inactive:
Cc1cc(C)cc(NC(=O)N2CCC(N3CCCCC3)CC2)c1 4.92%
CCOc1ccc(CNC(=O)C2CCN(c3nnc(-n4cccc4CNc4ccc(C)cc4)s3)CC2)cc1OC -33.6%
Cc1ccc(O)c(C(CC(=O)NCC2(c3ccccc3)CCCC2)c2ccccc2)c1 (configuration not stated) -53.5%
CCc1c(C)nc(SCC(=O)N2CCN(c3ccccc3OC)CC2)[nH]c1=O -12.8%
COc1ccc(OC)c(NC(=O)c2cc3c(=O)oc4ccccc4c3s2)c1 -2.46%
CCN(CC)c1nn2c(=O)c(C(=O)NCCc3ccccc3)cnc2s1 -3.08%
Cc1ccc(C)c(NC(=O)c2ccc3c(O)c(S(=O)(=O)c4ccc(Cl)cc4)c(=O)[nH]c3c2)c1 -11.2%
Cc1cc2c(cc1S(=O)(=O)NCc1ccccc1Cl)OCCN2C -14%
CCCCSCCCNC(=O)CN1C(=O)c2cccnc2Oc2ccc(Cl)cc21 -11.5%
CCOc1ccc(-c2nonc2NC(=O)c2oc3cc(C)ccc3c2C)cc1 -34.2%
Fc1ccc(-c2noc3ncnc(N4CCN(c5ccccc5)CC4)c23)cc1 -21.7%
COc1ccc(S(=O)(=O)N2CCN(c3ccccc3F)CC2)cc1-c1noc(C)n1 7.74%
O=C(NCc1ccc(F)cc1)c1ccc2c(Cl)c3c(nc2c1)CCCC3 -16.9%
COc1ccc(Cl)cc1Nc1sc(C(=O)c2ccccc2)c(N)c1C(=O)Nc1ccccc1 -29.1%
CC(=O)N1CCc2cc(CNS(=O)(=O)c3ccc(F)cc3)ccc21 0.808%
CCc1ccc(-c2cn3c(n2)sc2cc(C(=O)NC4CCCCCC4)ccc23)cc1 6.38%
O=C(NCc1cccc(Cl)c1)c1cc2c(s1)-c1ccccc1OC2 -7.14%
CCc1c(C)sc2c1CCN(Cc1cccc(F)c1)C2c1ccccc1 (configuration not stated) -44%
COCCc1nn2c(=O)cc(COC(=O)c3ccc4c(c3)OCO4)nc2s1 -5.59%
Cc1ccc(NC2=C(c3ccc(C(F)(F)F)cc3)C(=O)c3ccccc32)cc1C 19.6%
CC(=O)Nc1ccc(C(=O)CSc2nnc(-c3ccccc3)n2-c2ccccc2)cc1 -7.46%
Cc1ccc(-c2cc(C(=O)NCc3cnn(C)c3C)c3cc(Br)ccc3n2)cc1 6.57%
Cc1ccc(S(=O)(=O)c2nc(-c3ccccc3F)oc2N2CCCCC2)cc1 -49.1%
CCOC(=O)c1c(C)[nH]c(CCC(=O)NCCCN2CCN(c3ccc(F)cc3)CC2)c1C -20.2%
CCCCCCCCCCCCCCCC[N+](C)(C)CCN(Cc1ccc(OC)cc1)c1ncccn1 -39.2%
CCOC(=O)c1ccccc1NC(=O)Cn1cc(C(=O)c2cccc(OC)c2)c(=O)c2ccc(C)nc21 -17.4%
Cc1cccc(-c2nc(S(=O)(=O)c3ccc(F)cc3)c(N3CCN(c4ccccc4)CC3)o2)c1 -12%
